In PubChem BioAssay AID686978 (National Center for Advancing Translational Sciences (NCATS), 2013):
In all, about 420,000 compounds went through this assay and about 64,000 (15%) were called active. This list was built around the results that the source calls inconclusive (neither active nor inactive); the mix of calls is not that of the screen. Calls come from the whole dose curve; as a rule, active = well fitted inhibition curve with a large enough effect; inconclusive = small, poorly fitted or top-dose-only effect; inactive = flat fitted curve, though single readings scatter. Potencies of inconclusive entries are left out as doubtful fits.

Assay: qHTS for Inhibitors of human tyrosyl-DNA phosphodiesterase 1 (TDP1): qHTS in cells in absence of CPT; note: nearly all actives have a fitted effect of over 55% in size
Settings: DT40 Tdp1-/- hTDP1 cells, no CPT, ATP luminescence, 48 h; activity change, negative = growth inhibition: at 46.2 µM (top of the series) unless noted
In short: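 Seeded 400 DT40-hTDP1 cells/well (vehicle DMSO, no 20 nM CPT); pinned compounds; ≥48 hr at 37 °C; CellTiter-Glo luminescence as viability measure.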
% is set by controls: 0 for no effect and ±100 for the full control effect; potency is the fitted concentration of half-maximal effect; tags give direction and shape of the fitted curve.

Row | Compound | Potency | activity change, negative = growth inhibition
1 | Cc1ccc(Cl)cc1N1CCN(C(=O)c2ccc3c(c2)N(Cc2ccccc2F)C(=O)c2ccccc2S3=O)CC1 (stereo not given) | inconclusive [inhibitor, partial curve, poor fit] | 
2 | Cc1nn(-c2ccc([N+](=O)[O-])cc2)c(N)c1-c1ccccc1 | inconclusive [inhibitor, single point] | 
3 | CSc1nsc(SCC(=O)Nc2cc(C(=O)O)ccc2C)n1 | inactive | 
4 | CCOC(=O)N1CCN(C(=O)CNC(=O)c2ccc(Br)o2)CC1 |  | inconclusive: -3.97% [inhibitor]
5 | O=C(NC1CCCc2ccccc21)c1ccc(Cl)nc1 (stereo not given) | inconclusive [inhibitor, partial curve] | 
6 | CCOC(=O)c1ccn(-c2nc(-c3ccco3)cc(C(F)(F)F)n2)n1 | inconclusive [inhibitor, single point] | 
7 | CCN(CCCNC(=O)c1cc2cc3ccc(OC)cc3nc2s1)c1cccc(C)c1 | inconclusive [inhibitor, single point] | 
8 | COc1cc2c(cc1OC)/C(=C/C(=O)N1CCOCC1)NC(C)(C)C2 | inactive | 
9 | O=C(CCCCCNC(=O)N1CCn2c1nc1ccccc12)NCc1ccccc1Cl | inconclusive [inhibitor, single point] | 
10 | Cc1ccc(S(=O)(=O)N2CCC(c3nc(-c4cccs4)nc4ccccc34)CC2)cc1 | inconclusive [inhibitor, single point] | 
11 | O=C(c1ccccc1)c1coc(-c2ccccc2)c1 | inconclusive [inhibitor, partial curve] | 
12 | CC(C)Cn1c(=O)c2ccccc2n2c(CCC(=O)NCc3ccc(Cl)cc3)nnc12 | inactive | 
13 | CCCN1C(=O)c2[nH]nc(-c3cccc(OC)c3)c2C1c1ccccn1 (stereo not given) | active: 20.6 µM | 
14 | CC(=O)c1ccccc1NC(=O)c1ccc(OCc2c(C)noc2C)cc1 | active: 18.4 µM | 
15 | Cc1ccc(S(=O)(=O)Nc2cccc3cccnc23)cc1 | active: 20.6 µM | 
16 | Cc1nn(-c2ccccc2)c(C)c1C(=O)OC(C)C(=O)NC1CCCCC1 (stereo not given) | active: 10.3 µM | 
17 | Cc1ccc(S(=O)(=O)C2(C(=O)NCc3ccc4c(c3)OCO4)CC2)cc1 | active: 18.4 µM | 
18 | COc1ccc(C(C(=O)NC2CCCCC2)n2c(=O)c(-c3cc4ccccc4[nH]3)nc3ccccc32)cc1 (stereo not given) | active: 14.6 µM | 
19 | O=C(NCc1ccc(F)cc1)c1ccc(Cn2c(SCc3ccc(F)cc3)nc3cccnc32)cc1 | inconclusive [inhibitor, single point] | 
20 | COc1ccc(Cl)cc1NC(=O)CN(C)C(=O)c1ccc(COc2ccccc2)cc1 | inconclusive [inhibitor, single point] | 
21 | COc1ccc(Nc2cnn(-c3nc4ccccc4s3)c(=O)c2Cl)cc1 | active: 4.11 µM | 
22 | C=CC[C@@H](CC(=O)N[C@@H](CO)Cc1ccccc1)C(=O)N[C@H](COC(=O)[C@@H](CC=C)CC(=O)OC(C)(C)C)Cc1ccccc1 | active: 20.6 µM | 
23 | COc1cc(SC)ccc1C(=O)OCC(=O)N1CCN(C(C)=O)CC1 | inactive | 

Row | Compound | Potency | activity change, negative = growth inhibition
24 | Cc1cc(C)cc(-n2c(C)nc3cc(C(=O)NCc4ccc(F)cc4)ccc32)c1 | active: 14.6 µM | 
25 | COc1ccc(Cl)cc1NC(=O)C(=O)N/N=C/c1cc(C)n(-c2ccc(C)cc2)c1C | inconclusive [inhibitor, partial curve] | 
26 | O=C(Nc1ccc(Br)cc1)c1cc(-c2ccncc2)nc2ccccc12 | active: 16.4 µM | 
27 | O=C(COc1ccc(F)cc1)NN1C(=O)CSC1=S | inactive | 
28 | O=S(=O)(c1cccc2cccnc12)N1CCN(c2ccccn2)CC1 | inconclusive [inhibitor, single point] | 
29 | CC(=O)c1cccc(-c2ccnc3c2CC(C(=O)Nc2cccc(Oc4ccccc4)c2)O3)c1 (stereo not given) | inconclusive [inhibitor, single point] | 
30 | O=C(Cc1c[nH]c2ccccc12)N/N=C/c1ccc(F)cc1 | active: 20.6 µM | 
31 | O=C(NCCN1CCOCC1)c1cc2ccccc2[nH]1 | inconclusive [inhibitor, single point] | 
32 | O=C(O)CCN1C(=O)/C(=C\c2ccc(OCc3ccccc3)c(OCc3ccccc3)c2)SC1=S | inconclusive [inhibitor, single point] | 
33 | O=C(O)C1=C[C@H](c2ccc3c(c2)OCO3)C[C@H](OCc2ccc(CO)cc2)O1 | inactive | 
34 | CCCS(=O)(=O)NC(=O)C1(C)CCN(C(=O)c2ccc(OC)cc2)C1 (stereo not given) | inactive | 
35 | CC1(C)CC(=O)/C(=C(\O)CCCN2C(=O)c3ccccc3C2=O)C(=NCCO)C1 | inactive | 
36 | CCOc1ccc(S(=O)(=O)N2CCCC(C(=O)N3CCC(C(N)=O)CC3)C2)cc1Cl (stereo not given) | inconclusive [inhibitor, partial curve] | 
37 | O=C(NCC1CCCO1)c1c(O)c2cccc3c2n(c1=O)CCC3 (stereo not given) | inconclusive [inhibitor, single point] | 
38 | O=c1c2ccccc2oc2ccc(-c3ccc4[nH]ccc4c3)cc12 | inconclusive [inhibitor, single point] | 
39 | O=C(Cc1ccccc1)NCC(=O)N1CCN(Cc2cccc(Cl)c2)CC1 | inconclusive [inhibitor, single point] | 
40 | Cc1cc(C)cc(NC(=O)CSc2nc3ccccc3nc2N2CCCCC2)c1 | inconclusive [inhibitor, single point] | 
41 | Cc1cc(OCC(=O)N(C)Cc2ccccc2)cc(C)c1Cl | inconclusive [inhibitor, single point] | 
42 | CCC(C)NC(=O)c1ccc2c(c1)N(Cc1ccccc1F)C(=O)c1ccccc1S2=O (stereo not given) | inactive | 
43 | O=C(CCC(=O)N1CCSc2ccccc21)NCc1ccccc1Cl | inconclusive [inhibitor, single point] | 
44 | Cc1cc(C)cc(NC(=O)c2cnn(-c3ccc(C)c(C)c3)c2C2CCNCC2)c1 | inconclusive [inhibitor, single point] | 
45 | O=C(c1ccncc1)N(c1ccc2oc3c(c2c1)CCCC3)S(=O)(=O)c1ccc(F)cc1 | inconclusive [inhibitor, single point] | 
